Results on 56 sequences are retold here after the supplement of paper PMC7726561.

Over roughly 1,400 sequences, “thermal melting temperature (Tm) of peptide-HLA complex” has its median near 60; the lowest 2% begin near 45. This is one part of the list.

To fix the notation:
B1: unnamed (peptide)
chain: KPINVRVTTM
B2: unnamed (peptide)
chain: APLPGRAIL
B3: unnamed (peptide)
chain: SPAGNSPAPL
B4: unnamed (peptide)
chain: RPSQNNTIGL
B5: unnamed (peptide)
chain: TPQQGAQTSL
B6: unnamed (peptide)
chain: APINKAGSFL
B7: unnamed (peptide)
chain: IPFWRNTAV
B8: unnamed (peptide)
chain: APSSRWGGTSL
B9: unnamed (peptide)
chain: HPRVPSLTTV
B10: unnamed (peptide)
chain: APTPARPVL
B11: unnamed (peptide)
chain: APEEHPVL
B12: unnamed (peptide)
chain: DPMKARVVL
B13: unnamed (peptide)
chain: IPRYIVSQL
B14: unnamed (peptide)
chain: APRDAYWIA
B15: unnamed (peptide)
chain: RPAPLPAAVV
B16: unnamed (peptide)
chain: SPRDITTIKL
B17: unnamed (peptide)
chain: SPAKPVLIF
B18: unnamed (peptide)
chain: RPAAPGQTPL
B19: unnamed (peptide)
chain: WPASQRDVL
B20: unnamed (peptide)
chain: NPREWTPEI
B21: unnamed (peptide)
chain: APARASVIL
B22: unnamed (peptide)
chain: QPKLPITVL
B23: unnamed (peptide)
chain: APTQEKIFAVL
B24: unnamed (peptide)
chain: SPHSAAYVL
B25: unnamed (peptide)
chain: APAPKPEAA
B26: unnamed (peptide)
chain: LPRQPPMSL
B27: unnamed (peptide)
chain: LVRDVVSSL
B28: unnamed (peptide)
chain: FPRSQISVL
B29: unnamed (peptide)
chain: YPRVPVGGEL
B30: unnamed (peptide)
chain: APRPTIINA
B31: unnamed (peptide)
chain: RPQAPATVGL
B32: unnamed (peptide)
chain: SPTSLKITL
B33: unnamed (peptide)
chain: KPFLGIGL
B34: unnamed (peptide)
chain: APRAVFPSI
B35: unnamed (peptide)
chain: SPQAPTLQV
B36: unnamed (peptide)
chain: KPRNVQILNM
B37: unnamed (peptide)
chain: RPLGTRLGF
B38: unnamed (peptide)
chain: RPSPWRPLVL
B39: unnamed (peptide)
chain: SPSWRLTGF
B40: unnamed (peptide)
chain: IPASNRLLL
B41: unnamed (peptide)
chain: GPRPVLGGSFL
B42: unnamed (peptide)
chain: EPRHGGLTL
B43: unnamed (peptide)
chain: QLRLPTDTL
B44: unnamed (peptide)
chain: APSGGKVTVL
B45: unnamed (peptide)
chain: APRWVLSQVQL
B46: unnamed (peptide)
chain: RPVAPSGTAL
B47: unnamed (peptide)
chain: TPRSTVGVAVL
B48: unnamed (peptide)
chain: TPAPVPTSL
B49: unnamed (peptide)
chain: APYQFLTAF
B50: unnamed (peptide)
chain: SPGPEKMAL
B51: unnamed (peptide)
chain: QPARPGLLL
B52: unnamed (peptide)
chain: KPYPIAEVEQL
B53: unnamed (peptide)
chain: VPNAGRGLVRL
B54: unnamed (peptide)
chain: SPVVRVAV
B55: unnamed (peptide)
chain: APRTLLQVL
B56: unnamed (peptide)
chain: RPILTIITL
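Note: cell lysates heated 10 min at 37–73 °C, remaining pHLA pulled down with pan-class I antibody, peptides quantified by DIA-MS versus 37 °C, Tm where half the complex is lost.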

For the assay, the target named is HLA-B*07:02. The assay is described as follows: thermal melting temperature (Tm) of peptide-HLA complex; higher = more thermostable pHLA complex. The following applies: C1R-B*07:02.
Turning to B1, the thermal melting temperature was 56 °C.
Sequence B2 had a thermal melting temperature of 63.3 °C.
As for B3, the figure is 56.7 °C.
B4 registered a thermal melting temperature of 54 °C.
B5 gave a thermal melting temperature of 40.5 °C.
Next, B6: 61.8 °C.
As for B7, the figure is 62.3 °C.
As for B8, the figure is 52.9 °C.
Regarding B9, the thermal melting temperature is 58.8 °C.
Next, B10: 59.7 °C; B11: 56.1 °C.
As for B12, the figure is 49.3 °C; as for B13, 63.3 °C.
As for B14, the thermal melting temperature was 58.8 °C.
Sequence B15 had a thermal melting temperature of 55.9 °C.
Turning to B16, the thermal melting temperature turned out to be 60 °C.
In turn, B17 registered a thermal melting temperature of 60.1 °C.
As for B18, the figure is 59 °C; as for B19, 60.9 °C.
Consider B20, for which the thermal melting temperature stood at 57.8 °C.
The sequence B21 came in with a thermal melting temperature of 58.5 °C.
As for B22, the figure is 60.8 °C; as for B23, 61.2 °C; as for B24, 55.4 °C.
With B25, the thermal melting temperature is 62.6 °C.
In the case of B26, the thermal melting temperature was 66.1 °C.
For the sequence B27, the thermal melting temperature stood at 62.3 °C.
Next, B28: 62.1 °C.
For the sequence B29, the thermal melting temperature was 57.4 °C.
Sequence B30 registered a thermal melting temperature of 56.7 °C.
Next, B31: 58.2 °C.
As for B32, the figure is 58 °C.
B33 had a thermal melting temperature of 62.1 °C.
In turn, B34 gave a thermal melting temperature of 62 °C.
Next, B35: 63.1 °C; B36: 54.8 °C.
The sequence B37 displayed a thermal melting temperature of 53.6 °C.
As for B38, the figure is 57.1 °C; as for B39, 60.9 °C; as for B40, 61.8 °C.
As for B41, the thermal melting temperature is 62.9 °C.
Next, B42: 55.8 °C; B43: 60.5 °C.
As for B44, the figure is 59.8 °C; as for B45, 61.6 °C; as for B46, 58.9 °C.
As for B47, the figure is 59.5 °C; as for B48, 63.2 °C.
B49 yielded a thermal melting temperature of 59.9 °C.
In the case of B50, the thermal melting temperature was found to be 59.1 °C.
As for B51, the figure is 58.3 °C.
In turn, B52 returned a thermal melting temperature of 42.7 °C.
As for B53, the figure is 61.5 °C.
Next, B54: 57.1 °C; B55: 63 °C; B56: 62.3 °C.
